Experimental data published in PubChem BioAssay AID488969 (Vanderbilt High Throughput Screening Facility, 2010).
Over roughly 110,000 compounds, “z-score” has its median near -0.1; the highest 2% begin near 2. The list shows a part of the results. The source made the active and inactive calls.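 Rule for the calls: active = z-score in the third read window above 3 or below -3; inactive = the rest.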 Non-standard residues stand in square brackets, D forms with d. Residues, ends and D or L forms follow the SMILES beside them. ξ: configuration not given here. *: point of attachment. Cbz = O=C(OCc1ccccc1)*; ξA = CC(N)C(=O)O

What follows are molecules tested against Metabotropic glutamate receptor 8 (Rattus norvegicus) (UniProt P70579) (assay: rat mGluR8 modulators via GIRK flux, primary screen, cell-based, thallium flux, HTS (AID 488969)). Conditions: HEK293 rat mGluR8, GIRK (G protein-gated inwardly rectifying potassium channel) thallium flux, FluoZin2; at 10 µM; stronger effect = higher value; submaximal glutamate (EC20) added with thallium.
Sequence of UniProt P70579 (P70579 whole entry, looked up): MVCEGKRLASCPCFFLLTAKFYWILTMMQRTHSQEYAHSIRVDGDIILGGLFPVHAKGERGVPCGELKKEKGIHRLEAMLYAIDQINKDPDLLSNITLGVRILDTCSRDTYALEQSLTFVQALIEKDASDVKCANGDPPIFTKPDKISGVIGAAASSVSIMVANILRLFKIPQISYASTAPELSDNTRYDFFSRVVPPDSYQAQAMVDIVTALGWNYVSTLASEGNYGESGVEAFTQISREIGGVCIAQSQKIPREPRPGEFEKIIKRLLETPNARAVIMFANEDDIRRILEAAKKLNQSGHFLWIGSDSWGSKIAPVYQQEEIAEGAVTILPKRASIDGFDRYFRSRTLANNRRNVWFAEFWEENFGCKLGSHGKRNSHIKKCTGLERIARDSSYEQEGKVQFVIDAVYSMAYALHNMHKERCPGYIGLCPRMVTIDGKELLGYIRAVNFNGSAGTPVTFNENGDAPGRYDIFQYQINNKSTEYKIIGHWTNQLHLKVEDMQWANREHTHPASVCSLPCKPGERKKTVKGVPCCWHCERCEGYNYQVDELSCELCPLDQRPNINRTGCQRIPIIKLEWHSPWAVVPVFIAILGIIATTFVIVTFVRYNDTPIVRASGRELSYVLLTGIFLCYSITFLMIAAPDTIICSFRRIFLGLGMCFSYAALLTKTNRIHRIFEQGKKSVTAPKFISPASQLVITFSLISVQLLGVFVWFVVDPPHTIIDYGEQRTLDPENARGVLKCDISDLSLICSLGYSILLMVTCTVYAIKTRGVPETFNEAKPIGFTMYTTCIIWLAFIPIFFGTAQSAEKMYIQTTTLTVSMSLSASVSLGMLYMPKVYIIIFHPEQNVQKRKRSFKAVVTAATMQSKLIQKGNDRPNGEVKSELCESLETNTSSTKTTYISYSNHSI
Molecule `O=C(Nc1ccc(Cl)cc1)Nc1nnc(Cc2ccc([N+](=O)[O-])cc2)s1` has a z-score of 0.113.
Molecule `CC1CCCC(NC(=O)COC(=O)[C@@H]2CC(O)CN2S(=O)(=O)c2ccc3c(c2)OCCO3)C1C` (some centres undefined) has a z-score of -0.166.
In the case of `COc1ccccc1CNC(=O)c1ccc(OC(F)F)c(OC)c1`, the z-score is reported as -0.587.
`CCN(CC)c1ccc(CN(C(=O)c2ccco2)C2CCS(=O)(=O)C2)cc1` (centres undefined) was tested, and the z-score was 0.0162.
Molecule `Cc1ccc(Cn2c(=O)n(CCC(=O)NCc3ccc4c(c3)OCO4)c(=O)c3ccccc32)cc1` has a z-score of -0.259.
Molecule `COC(=O)C1=C(C)NC(=O)NC1/C=C/c1ccccc1` (centres undefined) has a z-score of 0.476.
With `O=C(Nc1cccc(C(=O)O)c1)/C(=C\c1ccccc1)NC(=O)c1ccccc1Cl` the z-score was -0.157.
`Nc1[nH]n2c(=O)cc(-c3ccccc3)nc2c1N=Nc1ccccc1` showed a z-score of -0.256.
`CCOC(=O)c1cc(-c2ccccc2)nc2nc(N3CCCCC3)sc12` gave a z-score of -0.0211.
`CCOc1ccc(C(F)(F)F)cc1NC(C)=O` was tested, and the z-score was 0.301.
`COC(=O)CNC(=O)C(C)NC(=O)CNC(=O)OCc1ccccc1` (stereo not drawn) (Cbz-Gly-[ξA]-Gly-OMe) was tested, and the z-score was 0.642.
Work on `COc1ccc(-c2nn(C)c(=O)c3ccccc23)cc1NC(=O)COc1ccccc1` yielded a z-score of -0.615.
`Cc1ccc(NC(=O)CS(=O)CC(=O)NCCCc2ccccc2)cc1Cl` (centres undefined) showed a z-score of -0.113.
`CSc1nn(CCc2ccncc2)c(=S)s1` showed a z-score of 1.18.
For `Cc1cc(=O)[nH]c(SCC(=O)Nc2cccc(C(F)(F)F)c2)n1`, the z-score was -0.601.
For `CCc1ccc(OCC(=O)NNC(=O)CSc2ncnc3sc(C)c(C)c23)cc1`, the z-score was 0.487.
`CC1CCc2nc3ccc(S(=O)(=O)N4CCC(C(=O)N5CCCCC5)CC4)cc3c(C(=O)O)c2C1` (centres undefined) was tested, and the z-score was -0.166.
`COC(=O)c1ccccc1NC(=S)N(Cc1ccc2c(c1)OCO2)Cc1cc2cc(OC)ccc2[nH]c1=O` was tested, and the z-score was -0.529.
For `CCOC(=O)c1c(C)oc2ccc(NS(=O)(=O)c3cccs3)cc12`, the z-score was 0.15.
Molecule `Cc1ccc(C)c(NC(=S)NCCSc2ccc(Cl)cc2)c1` has a z-score of 0.0299.
For `CCn1c(SCC(=O)N2CCCCC2C)nnc1-c1ccc(S(=O)(=O)N2CCN(C)CC2)cc1` (centres undefined), the z-score was 0.0291.
Work on `COc1ccc(NC(=O)c2c(SC)nsc2SC)cc1` yielded a z-score of 0.0111.
Molecule `O=C(CSc1nc2ccccc2c(=O)n1Cc1ccccc1)NCc1ccco1` has a z-score of 0.62.
Molecule `Cc1ccc(S(=O)(=O)N2CC=C(c3c(C)n(C)c4ccccc34)CC2)cc1` has a z-score of 0.174.
`CCc1nccn1S(=O)(=O)c1ccc(OC)c(OC)c1` showed a z-score of -0.00946.
`O=C(COC(=O)C(Cc1ccccc1)NC(=O)c1ccccc1)c1ccccc1` (centres undefined) gave a z-score of -0.519.
With `CCOc1cc2[nH]c(=S)n(CCC(=O)N3CCc4ccccc4C3)c(=O)c2cc1OCC` the z-score was -0.251.
`Cc1ccc(Oc2nc3ccccn3c(=O)c2/C=C(\C#N)C(=O)Nc2c(C)n(C)n(-c3ccccc3)c2=O)c(C)c1` gave a z-score of -0.352.
`O=C(O)c1ccccc1Nc1ccccc1C(=O)O` gave a z-score of -0.112.
In the case of `O=C(CN1C(=O)C(=O)c2ccccc21)NC1CCCCC1`, the z-score is reported as 0.0555.
`O=C1CC(Cc2ccccc2)C(=O)N1CCc1ccc2c(c1)OCO2` (centres undefined) showed a z-score of -0.19.
`Cc1cc(N2CCCCC2)nc(N2CCOCC2)n1` was tested, and the z-score was 0.0961.
`CC(=O)OC1CCC(OC(C)=O)c2c1n([O-])c(C)c(C)[n+]2=O` (centres undefined) was tested, and the z-score was -0.212.
`CCCCNc1nc(-c2ccccc2)nc(-n2ccnc2)n1` gave a z-score of -0.231.
`CCOc1ccccc1NC(=O)N1CCCC1C(=O)Nc1nnc(CC)s1` (centres undefined) showed a z-score of -0.537.
`O=C(NCc1ccc2c(c1)OCO2)C(C(=O)c1ccccc1)n1cc(Cl)ccc1=O` (centres undefined) showed a z-score of 0.237.
`O=C(O)CCC(=O)Nc1ccc2c(c1)oc1ccccc12` gave a z-score of -0.656.
`CCOP(=O)(OCC)C(NC(=O)Nc1cccc(Cl)c1)C(N)=O` (centres undefined) showed a z-score of -0.0798.
Work on `COc1ccc2c(c1)c1ncn(CCN3CCNCC3)c(=O)c1n2C` yielded a z-score of -0.141.
With `Cc1cccc(NCc2ccccc2O)c1C` the z-score was 0.825.
`COC(=O)c1cc(O)c(OCc2ccccc2)c(O)c1` was tested, and the z-score was -0.276.
`Cc1ccccc1NC(=O)c1ccc(S(=O)(=O)C(F)F)cc1` showed a z-score of -0.0622.
In the case of `CCOC(=O)C(=CNc1cc(C)ccn1)C(=O)OCC`, the z-score is reported as 0.94.
Molecule `Cc1cccc(Nc2nnc(SCC(=O)NC(=O)Nc3ccc4c(c3)OCCO4)s2)c1` has a z-score of -0.0418.
In the case of `CCOC(=O)c1[nH]c(C)c(C(=O)OCCN2C(=O)c3ccccc3C2=O)c1C`, the z-score is reported as 0.204.
In the case of `CCn1c(C)nc2cc(S(=O)(=O)C(F)(F)F)ccc21`, the z-score is reported as -0.753.
`O=C1Nc2ccccc2SC(c2ccccc2)C1O` (centres undefined) was tested, and the z-score was -0.0924.
Work on `Nc1nc2ccccc2n1/N=C/c1ccc(Br)cc1` yielded a z-score of 1.29.
In the case of `COc1ccc(NC(=O)Nc2ccc(OC)c(OC)c2)c([N+](=O)[O-])c1`, the z-score is reported as -0.42.
`COc1ccc(NC(=O)c2cccs2)cc1OC` gave a z-score of 0.0154.
`COc1cc2c(OC)cccc2cc1C(=O)O` was tested, and the z-score was -0.44.
Work on `C=CCn1c(SCc2c(C)noc2C)nc2sc3c(c2c1=O)CCCC3` yielded a z-score of -0.0819.
`Cc1cc(C(F)(F)F)n2nc(-c3cnn(C)c3C(F)(F)F)cc2n1` was tested, and the z-score was -0.144.
`COc1ccc(OC)c(/C=C/C(=O)Nc2ccc3c(c2)CCC3)c1` gave a z-score of -0.515.
With `Cn1c(=O)c2c(nc(NCCc3ccccc3)n2Cc2ccccc2)n(C)c1=O` the z-score was -0.49.
`COc1cccc(-c2nnc(-c3ccc(C(F)(F)F)cc3)o2)c1OC` showed a z-score of 0.256.
`O=S(=O)(c1cccc(C(F)(F)F)c1)N(CCCN1CCOCC1)Cc1cccs1` gave a z-score of -0.589.
Work on `Cc1nc(NCCc2cnc[nH]2)c2oc3ccccc3c2n1` yielded a z-score of -1.54.
Molecule `COc1ccc(N(Cc2ccccc2)S(=O)(=O)c2cccc(C(=O)NC3=NCCS3)c2)cc1` has a z-score of -0.206.
In the case of `COc1ccccc1Nc1nnc(SCC(=O)NC(=O)Nc2ccc3c(c2)OCCO3)s1`, the z-score is reported as -0.138.
`O=C(NC(=S)Nc1ccc2c(c1)OCCO2)c1cccc(Br)c1` was tested, and the z-score was 0.945.
`C/C(=N\NC(N)=O)c1cccc(Cl)c1` showed a z-score of -0.0531.
With `O=C(Nc1cc(C(F)(F)F)ccc1N1CCOCC1)c1ccc(Cl)nc1` the z-score was 0.281.
Molecule `O=C1CC(N2C(=O)/C(=C/C=C/c3ccccc3)SC2=S)C(=O)N1c1ccccc1` (centres undefined) has a z-score of -0.134.
`CCCCn1nnc(NC(=O)Cc2ccc(Cl)cc2)n1` was tested, and the z-score was -0.00798.
`COc1cc2[nH]c(=O)n(CCCCCC(=O)N3CC=C(c4ccccc4)CC3)c(=O)c2cc1OC` gave a z-score of -0.216.
Molecule `CC1CC(=O)c2cnc(N3CCOCC3)nc2C1` (centres undefined) has a z-score of -0.0519.
Work on `CCCS(=O)(=O)NCCc1cc2cc(C)c(C)cc2[nH]c1=O` yielded a z-score of 0.195.
`CC1(C)CC(=O)c2cc(C(=O)N3CCCC(C)(C)C3)c(=O)n(-c3ccccc3)c2C1` gave a z-score of -1.59.
`O=C(Nc1ccccc1Cl)c1cc(S(=O)(=O)N2CCCCC2)ccc1N1CCOCC1` gave a z-score of 0.266.
For `CCOC(=O)CNC(=O)c1sc(NC(=O)c2cccc(F)c2)nc1C`, the z-score was 0.135.
Work on `COc1ccc(NC(=O)CSC2CCCCC2)cc1` yielded a z-score of 0.542.
For `CCOC(=O)N1CCN(C(=O)CSc2nc3c([nH]c4ccccc43)c(=O)n2C)CC1`, the z-score was -0.103.
With `O=C(O)C1CCCCC1C(=O)NC1CCCCC1` (centres undefined) the z-score was 0.0368.
For `CCOC(=O)Cc1csc(NS(=O)(=O)c2ccc(Cl)cc2)n1`, the z-score was 0.0252.
With `COc1ccc(C(=O)Nc2ccccc2C(=O)NCCN2CCOCC2)cc1` the z-score was -0.271.
`CC(OC(=O)c1cccnc1SCc1cc(=O)n2ccccc2n1)c1ccccn1` (centres undefined) was tested, and the z-score was -0.0745.
In the case of `CCOC(=O)c1[nH]c2ccc(OC)cc2c1NC(=O)CCN1CCc2ccccc2C1`, the z-score is reported as -0.404.
`N#Cc1c[nH]n2c(=O)cc(Cc3ccccc3)nc12` was tested, and the z-score was -0.113.
For `Cc1nn(Cc2ccccc2)c(Cl)c1C(=O)NCc1ccc(C)n1C`, the z-score was -0.137.
`CCOC(=O)c1ccc(NC(=O)c2ccc(NC(=O)c3ccccc3)cc2)cc1` was tested, and the z-score was -0.341.
`Cc1cccc(N2CCN(C(=O)CN3CCOc4ccccc43)CC2C)c1` (centres undefined) was tested, and the z-score was 1.14.
In the case of `CSC(=NC#N)N1CCN(c2ccc(Cl)cc2)CC1`, the z-score is reported as -0.0515.
`CCCc1nn(-c2cc(Cl)ccc2OC)c2c1C(=O)CCC2` gave a z-score of 0.0593.
`O=C(CS(=O)(=O)c1c[nH]c2ccccc12)N1CCCCC1` showed a z-score of -1.47.
For `COc1cccc(C2NC(=S)NC3=C2CCc2ccccc23)c1` (centres undefined), the z-score was -0.168.
Molecule `O=C(N1CCCCCC1)N1CCN(S(=O)(=O)N2CCCCC2)CC1` has a z-score of 1.11.
For `CN(C)CCOc1nc(-c2ccccc2)nc2c1oc1ccccc12`, the z-score was 0.11.
`CCOC(=O)N1CCN(C(=O)CSc2nc(-c3cccc(C)c3)ns2)CC1` showed a z-score of 0.228.
Work on `COCc1cc(C)nc2sc(C(=O)N3CCCC3)c(N)c12` yielded a z-score of -0.117.
Work on `Cc1cc(/C=C2/C(=O)NN(c3ccccc3)C2=O)c(C)n1-c1cccc(O)c1` yielded a z-score of -0.338.
`CCOc1ccc(OCc2ccc(C(=O)NCc3cccnc3)o2)cc1` was tested, and the z-score was -0.238.
`CN1CCCC1CCNS(=O)(=O)c1ccc(Br)cc1` (centres undefined) gave a z-score of 0.0186.
`Cc1cc(C)c2c(c1)c(C)cc1nnc(SCC(=O)c3cccs3)n12` was tested, and the z-score was 0.0415.
Work on `Cn1c(Cc2cccs2)nnc1SCC(=O)N1CCc2ccccc21` yielded a z-score of -0.334.
Work on `N#CC1=C(N)Oc2cc(O)c(C=Nc3ccccc3)cc2C1c1ccccc1` (centres undefined) yielded a z-score of -0.423.
For `N#Cc1ccc(COC(=O)C2CCC(=O)N2)cc1` (centres undefined), the z-score was -0.0591.
With `CCCC(=O)n1nc(-c2ccccc2)nc1N` the z-score was active: 9.34.
With `Cc1cc(=O)[nH]c(Nc2c(C)n(C)n(-c3ccccc3)c2=O)n1` the z-score was -0.182.
`COc1cc2c(cc1NC(=O)COC(=O)Cn1cnc3ccccc31)oc1ccccc12` was tested, and the z-score was 0.0926.
`Cc1ccc(NC(=O)c2ccc(OC(=O)c3cc4ccccc4o3)cc2)cc1` showed a z-score of -0.291.
With `CCCc1cc(=O)oc2cc(C)cc(O)c12` the z-score was -0.654.
`CC(Oc1ccc(Cl)cc1Cl)C(=O)Nc1cccnc1` (centres undefined) showed a z-score of -0.438.
In the case of `Cc1ccc(OCC(=O)NCC(=O)Nc2ccc(F)c(F)c2F)c([N+](=O)[O-])n1`, the z-score is reported as 0.614.
For `Cc1ccc(NC(=O)c2cccc(S(=O)(=O)N(C)c3ccccc3)c2)cc1S(=O)(=O)N1CCOCC1`, the z-score was -0.453.
Molecule `Cn1c(O)c(C2=c3ccccc3=NC2=O)sc1=Nc1ccc(Cl)cc1` has a z-score of -1.17.
With `CCOc1ccc(CNC(=S)N/N=C/c2ccncc2)cc1` the z-score was 0.269.
Molecule `N#Cc1nc(-c2ccc(OCc3ccc(Cl)cc3)cc2)oc1NCc1cccnc1` has a z-score of -0.419.
With `CC1(C)CC(=O)C(C=NCCc2ccc(S(N)(=O)=O)cc2)=C(O)C1` the z-score was -0.0513.
